Test results as given in the supplement of paper PMC12632987.
Over roughly 2,300 sequences, “median log2 fold change of GCK-ALFA target abundance (FLAG IP / Myc IP barcode read proportion)” has its median near 0.095; the lowest 2% begin near -0.47. Some of the results follow.

B1: LC3A_free_8_2512 (protein)
chain: KSKEFAKAAVAILDELEKKIVELLKKKGKSRLDILDAELLIGSIIAEVISLSDKSMEEILKAIKEGLKELVEELSELKEEVKKLADEALKKIEEEKKKLE
B2: LC3A_3_1897 (protein)
chain: MDEEVEETLKLLKEAGASEETLEAFREVAEKLKERGYYEALKTLIEEMRKLIDAPSELLLDFLKEVLEVLETEDLSEEELIEKIKEIARLTRNEAEIIEL
B3: LC3A_28_1300 (protein)
chain: MSLEEQLEKAIEEAKKAAEKGEATVITIKVPGDADEEDIEKIIKALKEIAEILKDIPGSAIIIDVDADVPQEHITKLAEAAEEIEKKYPNVTVIIALEEP
B4: LC3A_3_1866 (protein)
chain: MEKIKEEILKLLKELGRSEETIEAARELAEALIERGYEEALKTLLEELKKLKDVDDEILLDMFKDILRAVEEENLDEEETIKLIKEEARIALNENEIEEL
B5: LC3A_17_575 (protein)
chain: SEEVEEVVKRTLKVLKEAAKFAEKIDKEAAEKIKKLIKKVEEAAKSGDEKETMKVAAEAMDEAADILDSLEDKDPENASLLSLEAEGVAIEAESVLLKLE
B6: LC3A_28_978 (protein)
chain: SSLEEELEKVLKEAKEAAAKGEPAVITVKVPGDTDEEETDRVIKALREIAEILKDVEGAAIIIDIDGGVPQEHRDRIIDEAERIEKEYPNITVIIALDER
B7: LC3A_28_1094 (protein)
chain: SELEKQLEEALKEVKEAAAAGEEVTVTIDVTDEATEEDIELLKEKLEEMAEIGKTLPRLSVIINLSGSKQQEFADIIGDFADELEAKYPNLTIIIALDED
B8: LC3A_28_1091 (protein)
chain: SALDASLAAALAETRAAAAAGEEVLVTITVTDEATEEDIERLKATLEEIAEIAASLPRLTVVIDLEGENQEEKANILSEFADELEAKYPNLTVIIALEEE
B9: LC3A_23_627 (protein)
chain: KVKLTVLIETIGSEEEIEENIKKVKEKVEEIKEKYKDKVLEVEVEVEVEKDEDGQWIAIITIKIVFDNDLEAAKEAAEELISFADENIPNGVVSYEIEEL
B10: LC3A_free_46_2403 (protein)
chain: YKGTIEIDALAESKEKAEQLAKEIKEAAEEIAKKYGAKVEIEVEIEEDEDGTVFVNITITVEAETEEKLQKFINEFIKKVDEIAEKLGVSYIISYEIEKL
B11: LC3A_28_1020 (protein)
chain: SHMEARVAAIEKEIKAAVAAGEEVVVTFTITPEDSLEEVRAAMARLKEIVLEAAKKGKVSLVVDLEKGVSQEKLDIVMEAADEIEAAAPNANVIIALEEE
B12: LC3A_45_1989 (protein)
chain: MAKATLDLLVPREKLEEALEVIERTAAELEARYGPALKVDLEKARKSAEETKDEEEVYLEVEITAPDMQTVLDAADEIEDALHEELGDSVASIISYDELE
B13: LC3A_28_1019 (protein)
chain: SAMEARVAAIEAEIAAAIAAGEDVVVTFTITPEDSLEEVRAAMERLKEIVLRAAKEGKVSLVVDLERGVSQEKLDVVAEKGDEIEEKAPNANVIIALEEE
B14: LC3A_free_46_2377 (protein)
chain: YKIIIDIDFSAMSREKAEEMAEEIKKAAEEISKKTGVKIEVEVEIITDEEGETWLRVRVTIEGEDEEKVRKAATELVDKFEEIAEEHGVSLIISIEEIKE
B15: LC3A_3_1869 (protein)
chain: MEEIKEEILKLLKERGRSEETIEAAKELLEALEERGYEEAAKTLLEELKELKDLPDELLLDMFLDLLRAVTEEKLNEEETIKKIKEEASIAKNEKEIIEL
B16: LC3A_17_558 (protein)
chain: MEELKKEIEELLKEAEELIKELEKYDKEAAEKLKKILEKAKKYLKEGKLEEALEELEKLADEAADIFDSLEHIDPQLMSILSMEAEGLRIEAELLRDKLE
B17: LC3A_102_148 (protein)
chain: SAEEKVEKLKKEAEKEGEKIAEKYKKKDPEKAKKIKELLLKGIEALAESALDEIRHGFVDLYAEDLAEEKLEELKKLGEEEGVKLLEKYREELKKIVKEA
B18: LC3A_3_1732 (protein)
chain: MEEVLEEARKRLEALGFSPELIEAALATIEALLEKGLEEQVELLLEALERIRDADEEDLLAYLEEIRELVETDKGSREELAEKVREEIRVMENDSEIEEL
B19: LC3A_23_616 (protein)
chain: MYKVEIIVDIIVPKEEAEKVEKDLLETINKVLEKNKSKIKEYKIEVEKEELEDGTVLLTIKVTIIYDGNKEEAEELANELVSAIDKTAPDAVISAEVSKI
B20: LC3A_28_1261 (protein)
chain: NKLEENLKKALEEAKKAVERGEEALIEIEIPAGITEEEVEKVIKTLEEIAELTASLKSVTVILDVEKGVSQEHIDKLADAAEELEKKYPNLTVIIALEEE
B21: LC3A_6_2065 (protein)
chain: KKAEFVLDILFPEERKEEGKEKAEKVFKEAKEELEKFMKSLGKKVIEAKLEYSEDGLLITITIVVEATPESIKKASEIIDKIEEELKPLASASLISEEIL
B22: LC3A_127_199 (protein)
chain: EKKKILEEAEKLAEEAIKEVDKIEEKGEEAREKAIKLLEELKKLLKKIPSLKEAEEDAEEAIKLLKELENLSEAEKEEAIEHIEMLLDGILIEIESELLK
B23: LC3A_28_680 (protein)
chain: SELEKEIEKALEEAKKAAEKGEPAVITINVPGDATEEEIEKFIKALKEIAEILKDVKGAAIIVNLSSKLSEEKKNKIIDAAEEINEKYPNVTVIIALEEK
B24: LC3A_3_1814 (protein)
chain: LDERVEETLELLREAGASEETLEAFRAAAEKLKEKGYYKALETFIELMRKNKDLPSELLLAAAKDVLELIETSDLNEEEMTKKIEEIFSTYEHEAEIEEL
B25: LC3A_free_46_2431 (protein)
chain: YIVEIDIDLLHKDKEVLEKAVEEIVEKIKEIAEKYNAEIEIEVEISKDEDGSYFARIKATIKVETEETAKKIADEIIDAVDEIAEKYDVSYIISVDISKE
B26: LC3A_3_1883 (protein)
chain: MEEEIEEALERLREAGASEEALEAFREAAELLRERGYEEALRTLIEEVEKLLDLSDELVLEFLEEVLRVVREEDLNEEELIERIREIARLTRNEGEIIEL
B27: LC3A_free_39_2188 (protein)
chain: SEEEAKKYKEELLKLAEEEGEETKKLAEEIIKIIGEDLKYLKELLELVKELKKEGVDLKKALEEALKLAKELKKKGKSKEEIAKEVLELLRDEINLIPID
B28: LC3A_147_427 (protein)
chain: MVVEVDIIVRGEEAVEEVKRFFQEIAEELRAQGYKVTLEIEVEKLDENTWYIRVTLTVEAETREEAEEAKQYVLDRIDELEERLKDRILGSLISVSYEEK
B29: LC3A_28_772 (protein)
chain: MDIKENAAKAIAEAKAAAAAGEEAVIEIKVPDGATEEDIEIVIKALEEIAEITKDMKSISVVIDVDGGVKQEHLDKLAKAAEEIEEKYPNVTVIIALDEN

These binders were tested against MAP1LC3A, Q9H492 (assay: median log2 fold change of GCK-ALFA target abundance (FLAG IP / Myc IP barcode read proportion) (log2 ratio); each designed protein is fused to an ALFA-tag nanobody in HEK293 cells to bring the named protein to FLAG-tagged glucokinase (GCK); Myc marks an untargeted standard; higher = target protein stabilised (more abundant)). Conditions: target protein: 3xFLAG-MCP-GCK-ALFA reporter; HEK293 landing pad (RPLP).
In short: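 The readout is target abundance, the per-binder median log2 ratio of FLAG to Myc barcode read proportions. It came from HEK293 landing-pad cells carrying a recombined ALFA-nanobody-fused binder library, induced with 2 μg mL^−1 doxycycline and transfected with a plasmid for a FLAG-tagged target and a Myc-tagged standard. After 48 h, lysates were immunoprecipitated with anti-FLAG and anti-Myc, and circular RNA barcodes were reverse transcribed, amplified and sequenced. Each barcode needed a proportion of at least 10^−7 in both replicates and each binder at least 3 barcodes per replicate, a pseudocount of 10^−6 was added, and the replicates were pooled.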

| Binder | median log2 fold change |
| --- | --- |
| B1 | 0.00528 |
| B2 | 0.32 |
| B3 | 0.215 |
| B4 | 0.511 |
| B5 | 0.0127 |
| B6 | -0.158 |
| B7 | 0.189 |
| B8 | 0.139 |
| B9 | 0.0177 |
| B10 | -0.0704 |
| B11 | -0.448 |
| B12 | -0.0527 |
| B13 | -0.357 |
| B14 | -0.267 |
| B15 | -0.0496 |
| B16 | -0.179 |
| B17 | 0.25 |
| B18 | 0.215 |
| B19 | -0.672 |
| B20 | 0.27 |
| B21 | 0.268 |
| B22 | -0.0513 |
| B23 | 0.0856 |
| B24 | 0.215 |
| B25 | 0.0337 |
| B26 | 0.278 |
| B27 | 0.231 |
| B28 | -0.106 |
| B29 | 0.202 |
